Data as given in PubChem BioAssay AID2100 (National Center for Advancing Translational Sciences (NCATS), 2009).
Out of some 300,000 compounds screened, about 1,200 (0.4%) were called active. This list was built around the results that the source calls inconclusive (neither active nor inactive); the mix of calls is not that of the screen. The call rests on the fitted dose curve; in most records, active means well fitted inhibition curve with a large enough effect; inconclusive means small, poorly fitted or top-dose-only effect, or another doubt; inactive means no such curve, though single readings can be large or run the other way. Potencies beside an inconclusive call are fits to weak or partial responses and may not hold up.

What follows are compounds tested against Lysosomal alpha-glucosidase (Homo sapiens) (UniProt P10253) (assay: qHTS Assay for Inhibitors and Activators of Human alpha-Glucosidase Cleavage of Glycogen). Conditions: recombinant GAA, glycogen substrate, Amplex Red glucose oxidase fluorescence; series mostly up to 76.4 µM.
Summary of the method: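 qHTS, 1536-well; enzyme 4 nM final; cpd up to 77 uM; substrate bovine liver glycogen 30 ug; 50 mM citrate/phosphate pH 5.0, 0.01% Tween-20; 37 C, 40 min; Amplex Red detection 45 min RT; Hill fit → AC50.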
Potency means the concentration at half of the fitted maximal effect.

| SMILES | Potency |
| --- | --- |
| Cc1cccc(C)c1OC(=O)CSc1nnc(CNC(=O)c2ccccc2)o1 | inconclusive: 11.2 µM [inhibitor, single point] |
| Cc1ccc(NC(=O)NC(=O)CN2CCN(c3ccc(O)cc3)CC2)c(C)c1 | inconclusive: 2.24 µM [inhibitor, full curve] |
| COc1ccc(-n2cnc3cc(NCc4ccccn4)ccc32)cc1 | inconclusive: 35.5 µM [inhibitor, partial curve] |
| Cc1ccc(S(=O)(=O)Nc2nc(C)c(C(=O)NNS(=O)(=O)c3ccccc3)s2)cc1 | inconclusive: 39.8 µM [inhibitor, partial curve] |
| Cc1ccc(NC(=O)c2oc3ccccc3c2NC(=O)c2ccc(F)c(F)c2)cc1 | inconclusive: 10 µM [inhibitor, single point] |
| COc1ccc(S(=O)(=O)N2CCN(Cc3cccc(OC)c3)CC2)cc1 | inactive |
| O=c1oc2ccccc2cc1-c1csc(Nc2ccc(O)cc2)n1 | inconclusive: 28.2 µM [inhibitor, partial curve] |
| N#Cc1ccc(C(=O)CSc2n[nH]c(=O)n2Cc2ccco2)cc1 | inconclusive: 35.5 µM [inhibitor, partial curve] |
| COc1ccc(C(=O)Nc2cc(OC)c(NC(=O)c3ccco3)cc2OC)cc1 | inactive |
| O=C1C=C(Nc2ccc(O)cc2)CC(c2ccco2)C1 (centres undefined) | inconclusive: 20 µM [inhibitor, partial curve] |
| Cc1cc(NN)nc(NS(=O)(=O)c2ccc(Cl)cc2)n1 | inconclusive: 39.8 µM [inhibitor, partial curve] |
| Cc1cccc(Cl)c1NC(=S)NN | inconclusive: 31.6 µM [inhibitor, single point] |
| CCN1CCCc2cc(CN(CCN3CCOCC3)C(=S)Nc3ccccc3OC)ccc21 | inconclusive: 3.55 µM [inhibitor, full curve] |
| c1ccc(CSc2ncnc3ccccc23)cc1 | inactive |
| COc1ccc(NC(=O)O/N=C/c2c(C)nn(C(C)(C)C)c2C)cc1 | inconclusive: 8.84 µM [inhibitor, full curve] |
| NS(=O)(=O)c1ccc(N=Nc2c[nH]c(=O)c(O)c2)cc1 | inconclusive: 3.16 µM [inhibitor, single point] |
| Cc1cccc(Oc2coc3cc(OC(=O)c4cccs4)ccc3c2=O)c1 | inconclusive: 9.92 µM [inhibitor, partial curve] |
| CCOc1ccc(CNc2ccc3c(c2)ncn3C(C)(C)C)cc1 | inconclusive: 35.5 µM [inhibitor, single point] |
| O=C(Cc1ccccc1)NNc1ccc2ccccc2c1 | active: 25.1 µM |
